± gives the standard deviation of the averaged measurements. Over roughly 33,000 sequences, “E-score (dimensionless, -0.5 to 0.5)” has its median near -0.049; the highest 2% begin near 0.37. The list shows a part of the results.
tested on: T1, PmTbr T-box DNA-binding domain (GST fusion); assay: PBM E-score of 8-mer (E-score (dimensionless, -0.5 to 0.5)); Tbr is Tbrain of the sea star Patiria miniata (Pm) or the sea urchin Strongylocentrotus purpuratus (Sp); higher = stronger binding preference; most listed sequences are background and not binding sites; conditions: the construct has about 5 more residues each side
T1 sequence: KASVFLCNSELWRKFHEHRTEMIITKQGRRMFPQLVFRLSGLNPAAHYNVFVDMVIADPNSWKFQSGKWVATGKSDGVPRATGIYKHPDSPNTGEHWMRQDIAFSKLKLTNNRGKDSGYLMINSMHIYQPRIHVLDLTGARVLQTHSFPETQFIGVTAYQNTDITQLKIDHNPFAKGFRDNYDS
How it was run: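 Universal Agilent oligonucleotide arrays, made double-stranded by primer extension, were incubated with 200 nM GST-fused Tbr T-box DNA-binding domain in PBS (pH 7.5). The protein was expressed in BL21 E. coli at 20 °C and purified by glutathione affinity chromatography. After scanning and quantification, the Universal PBM Analysis Suite assigned an enrichment E-score to each ungapped 8-mer, averaged over duplicate arrays.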

Row | Sequence | PBM E-score of 8-mer
1 | ACTCCTAC | -0.129 ± 0.017
2 | GCATAAGC | -0.0896 ± 0.04
3 | CTGCCCAC | 0.0747 ± 0.074
4 | ATACCAAG | -0.0242 ± 0.076
5 | ACGTCGAC | 0.115 ± 0.035
6 | ACCACTCT | -0.0871 ± 0.0037
7 | CAACATTA | -0.0938 ± 0.068
8 | TGCGAGAA | 0.3906 ± 0.0012
9 | CCTACTAA | 0.0287 ± 0.034
10 | CGAGCCCG | -0.0416 ± 0.057
11 | ACTTATCG | 0.138 ± 0.029
12 | CCGGTTCC | -0.214 ± 0.067
13 | CCGTGGAA | -0.00916 ± 0.053
14 | CCTGGCAG | 0.0327 ± 0.026
15 | CCCTAACC | -0.149 ± 0.022
16 | TATGCTGA | -0.28082 ± 7.1e-05
17 | ACTGCAAA | 0.0952 ± 0.041
18 | ATACCTCG | 0.0114 ± 0.062
19 | CCTATCGC | 0.187 ± 0.02
20 | AAGCGGGC | -0.0761 ± 0.02
21 | AGACGGCA | -0.0772 ± 0.0055
22 | ATGGCGCC | 0.203 ± 0.0063
23 | AATCGCGA | 0.3771 ± 0.0028
24 | CCGATCCG | -0.094 ± 0.017
25 | TATGTCAA | 0.0912 ± 0.063

Row | Sequence | PBM E-score of 8-mer
26 | CCATAAGC | -0.0407 ± 0.022
27 | AAGTCGCA | 0.212 ± 0.027
28 | GGCAAGGA | -0.282 ± 0.0094
29 | CAGCACTG | -0.0103 ± 0.11
30 | AAGAGAGC | -0.208 ± 0.015
31 | CCGGTAAA | -0.185 ± 0.034
32 | ACTCGACC | -0.0345 ± 0.015
33 | ATAGATAA | -0.00945 ± 0.081
34 | CACTGTAG | 0.028 ± 0.029
35 | GCCACAAC | 0.0461 ± 0.015
36 | CCACAGGC | -0.15 ± 0.021
37 | AGAGCGCC | -0.0954 ± 0.008
38 | AGTACCGA | -0.252 ± 0.042
39 | ACGAGCCA | -0.209 ± 0.086
40 | GATTGACC | -0.116 ± 0.056
41 | AGCCATCG | 0.06 ± 0.013
42 | GACTGATC | -0.186 ± 0.015
43 | AAGCCCGC | -0.0747 ± 0.018
44 | AGTCTAAT | -0.0337 ± 0.044
45 | GATTGACA | 0.2436 ± 0.0011
46 | AGGGTCTG | -0.153 ± 0.037
47 | AGACATTC | -0.2 ± 0.025
48 | CCAAAGAA | -0.26 ± 0.0045
49 | CAGACCAG | -0.278 ± 0.029
50 | CCTGTGCA | -0.107 ± 0.012

Row | Sequence | PBM E-score of 8-mer
51 | ATAACTTA | -0.0517 ± 0.069
52 | GAGTTGTA | 0.195 ± 0.049
53 | CCCCGCCG | -0.053 ± 0.093
54 | CGACTGAG | -0.253 ± 0.023
55 | AGTGGAAT | -0.0212 ± 0.05
56 | CATTAACA | 0.313 ± 0.071
57 | CCTAACGC | 0.202 ± 0.033
58 | CATCAGTA | -0.108 ± 0.086
59 | AGCTGAAT | -0.0655 ± 0.049
60 | AACCGAGG | -0.0449 ± 0.022
61 | CGTTCCTC | -0.115 ± 0.035
62 | CACTGTTA | 0.177 ± 0.0082
63 | ACCGCTGC | 0.128 ± 0.0099
64 | CATTGTAA | -0.115 ± 0.1
65 | AACCGCAG | -0.134 ± 0.07
66 | CATCATGA | -0.142 ± 0.079
67 | ACGACTCC | -0.0669 ± 0.11
68 | ACAGCTGC | 0.221 ± 0.0035
69 | ATAACCTG | 0.0231 ± 0.018
70 | ATGATTGA | 0.123 ± 0.065
71 | ACCACACA | 0.21 ± 0.0081
72 | CTGACCTA | -0.194 ± 0.079
73 | GGAGGGCC | -0.274 ± 0.097
74 | ATATGGTC | -0.17 ± 0.0095
75 | CCACGCAC | 0.0735 ± 0.062

Row | Sequence | PBM E-score of 8-mer
76 | CTCGCTTA | 0.0115 ± 0.0016
77 | ATCTGCCA | 0.0208 ± 0.02
78 | AAATTGTT | -0.0609 ± 0.041
79 | TGACAACA | 0.339 ± 0.019
80 | ACTAGGCC | 0.0616 ± 0.0072
81 | AGAGGTGG | 0.316 ± 0.0057
82 | AGTAAAGG | -0.0214 ± 0.051
83 | CACGCGAG | 0.214 ± 0.024
84 | GAGCAGAC | 0.012 ± 0.017
85 | CACATGCC | 0.124 ± 0.0096
86 | CTTGGGGA | -0.196 ± 0.039
87 | ACTCGCAT | -0.0149 ± 0.006
88 | CCGTAAGG | -0.0384 ± 0.0057
89 | GTTAGATA | -0.00025 ± 0.026
90 | GGAACCTA | -0.188 ± 0.0072
91 | ACTGAATG | -0.2555 ± 0.0011
92 | CGCCTACG | 0.0961 ± 0.028
93 | ATGAACGA | -0.242 ± 0.07
94 | TGACCAAA | -0.0968 ± 0.0068
95 | AATAATCT | -0.27 ± 0.02
96 | ATTAGGCG | 0.0226 ± 0.033
97 | ATGACATC | -0.203 ± 0.053
98 | CCCTAGGG | -0.16 ± 0.025
99 | CACCTCAA | 0.395 ± 0.022
100 | CTTGCCAA | 0.237 ± 0.054

Row | Sequence | PBM E-score of 8-mer
101 | TTCAGGAA | -0.129 ± 0.021
102 | AAAGACCA | -0.114 ± 0.043
103 | GGTGACGA | 0.429 ± 0.013
104 | CAGCTCCC | -0.1055 ± 0.00083
105 | GAACCTCC | -0.127 ± 0.068
106 | ATTAAACA | 0.0958 ± 0.041
107 | AATATCTA | -0.236 ± 0.055
108 | CATCGATA | 0.0386 ± 0.0093
109 | CGCCGACG | 0.0764 ± 0.03
110 | ACACCCCC | 0.379 ± 0.017
111 | GGCGCCAC | 0.3288 ± 0.0022
112 | CAGCTTCC | -0.237 ± 0.013
113 | GTGGGAAC | 0.239 ± 0.009
114 | AAAGTAAG | -0.0117 ± 0.0073
115 | CATCGGGC | -0.0604 ± 0.041
116 | TGGATACA | -0.223 ± 0.037
117 | GCCAGCAA | -0.149 ± 0.1
118 | CCCGTTGA | 0.021 ± 0.11
119 | GGCGGACC | -0.0519 ± 0.055
120 | CTAAACAC | 0.146 ± 0.053
121 | ACGACTAA | -0.139 ± 0.0045
122 | CACCTCAG | 0.42 ± 0.0057
123 | CAAGGCCA | -0.163 ± 0.013
124 | CGTGAGGC | 0.0784 ± 0.018
125 | AGGGATCG | 0.148 ± 0.033

Row | Sequence | PBM E-score of 8-mer
126 | ACCGCCCT | -0.289 ± 0.011
127 | CAGATTGC | -0.0534 ± 0.016
128 | GGCGGGAA | 0.152 ± 0.011
129 | ACGACTAT | -0.13 ± 0.011
130 | CTCATCCC | -0.165 ± 0.079
131 | ATTTAGTC | -0.0274 ± 0.052
132 | GCCAACTA | 0.147 ± 0.034
133 | CGAAAAGC | 0.155 ± 0.025
134 | CCCGTGTC | 0.0466 ± 0.02
135 | CAGAGGAA | -0.0607 ± 0.042
136 | CCATTCGC | 0.226 ± 0.0074
137 | TGTCGTAA | 0.144 ± 0.0038
138 | TCCAAGCA | -0.0365 ± 0.015
139 | CACGGTCG | 0.0491 ± 0.014
140 | TCTAGGCA | -0.0224 ± 0.0097
141 | CTGTCTAA | -0.0724 ± 0.019
142 | GATTCCGC | -0.0571 ± 0.061
143 | ATCGTAAC | -0.000505 ± 0.017
144 | ACGGTGGG | -0.211 ± 0.015
145 | CGGTACCG | -0.0712 ± 0.02
146 | GGCTTTTA | -0.0878 ± 0.01
147 | CGCGAGGA | 0.168 ± 0.052
148 | ACTTGTAA | 0.0472 ± 0.082
149 | AAATAAGC | -0.0171 ± 0.064
150 | GCTGGTCC | -0.237 ± 0.01

Row | Sequence | PBM E-score of 8-mer
151 | AATATGTC | 0.00194 ± 0.044
152 | GATCCAGC | -0.0993 ± 0.012
153 | ATTCTGGC | -0.0401 ± 0.049
154 | AAAGAAAC | -0.173 ± 0.081
155 | AAAAATCC | -0.12 ± 0.019
156 | ATGAGCAC | -0.247 ± 0.061
157 | ACGTGAAG | 0.146 ± 0.054
158 | CAGCGAGA | 0.0222 ± 0.014
159 | CCACGTAC | 0.0376 ± 0.016
160 | AGCTATAA | -0.182 ± 0.011
161 | CGGGGAAG | -0.145 ± 0.087
162 | ATCGTTCA | -0.357 ± 0.005
163 | AGATATAA | -0.00705 ± 0.037
164 | CTTTTTCA | 0.0925 ± 0.056
165 | CCAAGACC | -0.227 ± 0.013
166 | CTAAAGAC | -0.178 ± 0.0032
167 | CCCTAAGA | -0.208 ± 0.015
168 | ACTGATTG | -0.106 ± 0.052
169 | AACCTATT | -0.172 ± 0.056
170 | AGGGAACG | 0.0301 ± 0.15
171 | TCAGTGAA | -0.0398 ± 0.015
172 | ACCTGGCG | 0.251 ± 0.049
